No constants are given. Whether binding was seen depends on the method and setting. In cells and extracts the contact can be indirect. Some binding calls cover weakened binding; strength is not graded here. Sequences can lack the tags named with a protein.

The chains behind the UniProt entries cited, without tags or fusion partners. Residues count along the entry.
UniProt Q13586, residues 23-685: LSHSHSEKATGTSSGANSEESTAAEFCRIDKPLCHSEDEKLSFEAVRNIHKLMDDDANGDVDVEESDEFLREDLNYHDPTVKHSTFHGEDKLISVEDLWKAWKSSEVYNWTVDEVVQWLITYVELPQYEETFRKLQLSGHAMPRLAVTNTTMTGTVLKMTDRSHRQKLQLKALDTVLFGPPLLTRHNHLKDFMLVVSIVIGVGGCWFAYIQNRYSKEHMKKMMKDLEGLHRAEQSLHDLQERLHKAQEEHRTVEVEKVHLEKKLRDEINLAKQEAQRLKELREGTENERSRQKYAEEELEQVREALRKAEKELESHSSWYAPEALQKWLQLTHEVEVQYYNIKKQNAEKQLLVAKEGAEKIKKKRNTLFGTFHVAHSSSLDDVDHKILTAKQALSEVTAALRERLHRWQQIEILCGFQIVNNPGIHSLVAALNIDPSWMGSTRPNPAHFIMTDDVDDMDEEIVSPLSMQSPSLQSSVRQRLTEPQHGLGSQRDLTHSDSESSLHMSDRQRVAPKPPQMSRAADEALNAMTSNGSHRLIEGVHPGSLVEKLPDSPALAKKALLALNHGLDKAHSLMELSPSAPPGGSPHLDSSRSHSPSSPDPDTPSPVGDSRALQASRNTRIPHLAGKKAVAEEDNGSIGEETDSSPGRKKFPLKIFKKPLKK
UniProt P70302, residues 23-685: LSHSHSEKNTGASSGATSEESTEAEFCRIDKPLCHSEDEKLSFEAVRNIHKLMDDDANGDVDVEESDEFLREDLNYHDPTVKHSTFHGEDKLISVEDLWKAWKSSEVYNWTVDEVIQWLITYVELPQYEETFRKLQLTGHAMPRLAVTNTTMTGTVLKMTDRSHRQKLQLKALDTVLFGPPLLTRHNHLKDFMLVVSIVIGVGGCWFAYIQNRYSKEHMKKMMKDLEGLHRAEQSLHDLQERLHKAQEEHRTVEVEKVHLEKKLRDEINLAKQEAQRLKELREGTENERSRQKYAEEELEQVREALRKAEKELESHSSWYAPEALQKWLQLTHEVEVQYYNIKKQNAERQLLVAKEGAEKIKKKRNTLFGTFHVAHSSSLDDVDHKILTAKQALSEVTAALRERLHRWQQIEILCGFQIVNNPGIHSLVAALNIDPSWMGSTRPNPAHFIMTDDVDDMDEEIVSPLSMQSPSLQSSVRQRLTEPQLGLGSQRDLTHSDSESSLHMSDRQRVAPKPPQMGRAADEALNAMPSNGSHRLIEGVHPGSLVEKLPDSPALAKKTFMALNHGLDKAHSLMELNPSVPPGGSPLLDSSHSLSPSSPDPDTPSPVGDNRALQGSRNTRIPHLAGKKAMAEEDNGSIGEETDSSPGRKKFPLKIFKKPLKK

Among the data in PMC8527048 are binding values, retold here.

The target of experiment [1] is T1, TS-5-LO (Twin-Strep-tagged 5-lipoxygenase) in HEK293FT cells (UniProt P48999).
T1 sequence: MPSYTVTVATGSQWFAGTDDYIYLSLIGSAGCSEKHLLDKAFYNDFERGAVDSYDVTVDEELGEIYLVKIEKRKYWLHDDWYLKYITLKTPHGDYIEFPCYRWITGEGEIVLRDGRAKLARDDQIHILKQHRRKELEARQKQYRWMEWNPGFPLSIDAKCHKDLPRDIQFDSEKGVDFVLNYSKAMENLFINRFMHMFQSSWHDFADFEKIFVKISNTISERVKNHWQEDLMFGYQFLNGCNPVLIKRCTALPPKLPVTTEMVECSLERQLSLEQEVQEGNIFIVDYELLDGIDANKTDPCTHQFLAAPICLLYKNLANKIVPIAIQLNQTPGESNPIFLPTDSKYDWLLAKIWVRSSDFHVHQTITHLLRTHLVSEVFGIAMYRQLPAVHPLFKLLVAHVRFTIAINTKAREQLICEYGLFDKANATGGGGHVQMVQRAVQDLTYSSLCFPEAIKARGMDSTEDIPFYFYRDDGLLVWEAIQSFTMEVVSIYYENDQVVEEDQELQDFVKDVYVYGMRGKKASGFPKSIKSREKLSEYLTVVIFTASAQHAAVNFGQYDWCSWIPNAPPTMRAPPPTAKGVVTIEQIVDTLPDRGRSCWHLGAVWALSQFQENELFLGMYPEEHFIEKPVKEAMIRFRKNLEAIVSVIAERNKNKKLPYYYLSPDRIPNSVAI
Put plainly: pull-down; Strep-Tactin Superflow resin holds the TS-tagged protein from postnuclear lysates (1% CHAPS, 50 mM Hepes-KOH, 150 mM KOAc, pH 6.8, 4°C) of transduced HEK293FT cells, resting or activated with thapsigargin (0, 3, 15, 25 min); immunoblot. For orientation: Immunoblotting shows a protein as a band on a membrane.

The target of experiment [2] is T2, GST-5-LO (UniProt P48999).
T2 sequence: T1 sequence
Put plainly: pull-down; GST pull-downs combined with BMMC lysates containing endogenous levels of the proteins; immunoblot; only the target purified.

The target in experiment [3] is T3, GST-ORMDL3 (UniProt Q9CPZ6).
T3 sequence: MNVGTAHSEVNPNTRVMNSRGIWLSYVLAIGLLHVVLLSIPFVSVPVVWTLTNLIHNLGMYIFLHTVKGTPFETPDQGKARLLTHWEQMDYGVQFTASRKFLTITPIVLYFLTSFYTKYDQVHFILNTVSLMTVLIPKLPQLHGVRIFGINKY
Described as above.

Experiment [4] addresses T3, GST-ORMDL3. The experiment is described as above. This is another data set of the same source.
For a further experiment, the target named is T4, ORMDL3-MYC (UniProt Q9CPZ6).
T4 sequence: T3 sequence
As to the kind of experiment: condition: only cells not activated with thapsigargin; co-IP; anti-MYC immunoprecipitate of ORMDL3-MYC from BMMCL not activated with thapsigargin; SDS-PAGE, Coomassie blue staining.

In experiment [5] the target is T2, GST-5-LO. Put plainly: pull-down; GST-tagged protein from bacterial lysate on glutathione agarose beads, washed; in vitro-translated 35S-methionine-labeled protein added, 1 h at 4°C, Hepes-KOH buffer pH 6.8 with 1% CHAPS and 5 mM DTT; autoradiography; only the target purified.
The target of the next experiment is T5, GST-FLAP (UniProt P30355).
T5 sequence: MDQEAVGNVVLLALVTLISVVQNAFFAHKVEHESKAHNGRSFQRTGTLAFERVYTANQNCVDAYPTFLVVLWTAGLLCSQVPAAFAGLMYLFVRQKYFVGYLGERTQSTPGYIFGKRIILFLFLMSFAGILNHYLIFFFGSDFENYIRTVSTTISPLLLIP
The description is as above.

In experiment [6] the target is T6, GST-LTC4 synthase (LTC4S) (UniProt Q60860).
T6 sequence: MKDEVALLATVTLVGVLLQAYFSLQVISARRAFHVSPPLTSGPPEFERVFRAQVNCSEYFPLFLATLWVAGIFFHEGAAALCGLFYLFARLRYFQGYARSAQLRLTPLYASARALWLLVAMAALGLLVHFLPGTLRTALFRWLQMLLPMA
The experiment is described as above.

For experiment [7], the target named is T3, GST-ORMDL3. The description is as above.

As to “stromal interaction molecule 1 (STIM1), endogenously expressed in HEK293FT (from UniProt Q13586 23-685)”, the binding entry in experiment [1] is given as “no binding”.
In the case of “stromal interaction molecule 1 (STIM1), endogenous in BMMC (from UniProt P70302 23-685)”, the binding entry with GST-5-LO [2] and with GST-ORMDL3 [3] was “no binding” each time.

B1: 5-lipoxygenase (5-LO), endogenous in mouse mast cells (enzyme, UniProt P48999 1-674)
chain: T1 sequence
Regarding B1, the results for the binding entry with GST-ORMDL3 [4] and with ORMDL3-MYC were “binds” and “no binding”, respectively.

B2: ^35S-5-LO (enzyme, UniProt P48999 1-674)
chain: T1 sequence
modifications: 35S-labeled L-methionine
With B2, the binding entry (with GST-5-LO [5]; with GST-FLAP; in [6]; with GST-ORMDL3 [7]) was “binds” throughout.
